{"source": "paper PMC12136788", "binders": {"B1": {"name": "chr2:47387792:47387793:-_ENSG00000143933_ENST00000272298|hu_mus|motif|central (ssRNA)", "RNA": "GGGAGUUCUACAGUCCGACGAUCUAAGGACAAUGACAGUAAGAUAAGGGAAGAAAACAUGGAGGAAUGAAGUCCGGAUUACGGUACAUGCAUAUUUUUUGACAGUAGGGGGGGGGAACCUUUUACAGAUAAGUUACAAACAAACAACAGAGGAUUGAGCAUCA"}, "B2": {"name": "chr12:42180722:42180723:-_ENSMUSG00000036295_ENSMUST00000043884|mus_hu|mus_mus_mus_hu_True|88_88 (ssRNA)", "RNA": "GGGAGUUCUACAGUCCGACGAUCCUGUAGGAGAAGAAUCUGUGUGUCGGCAGGCAAUCUGGCUGGGAAAGUUAAAAGACCUAAAUCAUUACAAUCCACUGUAGAUGCUUCCAUAUAAAUGGAUCUGGGUGUAAACCAAGGCCUCAACAGAGGAUUGAGCAUCA"}, "B3": {"name": "chr11:98549071:98549072:+_ENSMUSG00000017221_ENSMUST00000017365|mus_mus|motif|central (ssRNA)", "RNA": "GGGAGUUCUACAGUCCGACGAUCAUCCAGCUUGUCCAGGAACUCAUAGACCCGGGCGUGAUAAUAGUAACACUUGGCAGCGGCGAGGUCCAGGGCUCGGCGGUUCUGAGUGCUGAUCUUCUGCAUCAGGUCAUCAGAGAUUUUCAACAGAGGAUUGAGCAUCA"}, "B4": {"name": "chr3:10015032:10015033:+_ENSMUSG00000027533_ENSMUST00000029046|mus_mus|mus_mus_mus_hu_True|1_68 (ssRNA)", "RNA": "GGGAGUUCUACAGUCCGACGAUCGUUUUUACCAUCACAAGUGAUGAUACAAUCUGGCUUGGCCAUUGCAGCCAUCUUUCGCAAAGCUAUUCCCACUCCUAGCUCCUUCAUGUAUUCAUCAAAGCCUUUGCUGUCCAUCAGGCGCAACAGAGGAUUGAGCAUCA"}, "B5": {"name": "chr4:116226318:116226319:-_ENSMUSG00000055900_ENSMUST00000106478|mus_hu|FALSE|FALSE (ssRNA)", "RNA": "GGGAGUUCUACAGUCCGACGAUCAGGCCUUGGACAUGGGGAAAAGUUUUGCUGGAGAGACAUCUUGAGAGAAAGUAUAUCUGUUCUGCUGGUUCUUAGUCCCACUGGGAAAGAGUACUUCAGUAUCUUUGAAGAUGCUUGAGACAACAGAGGAUUGAGCAUCA"}, "B6": {"name": "38467728_38467848_921_CDS_ENSMUSG00000060450_ENSMUST00000072376|mouse|control|control (ssRNA)", "RNA": "GGGAGUUCUACAGUCCGACGAUCCUUCGUCUGCCGAGCUUGAUUGAAGUCCAAGAUCUCCUGGAUCAGACUUGACAAUGACUCUACAUCCUGUACAGCUCUCUCAUCCACAGUUUCUUCUUGGUCUACAUCCGCCGCAGCAGCCAACAGAGGAUUGAGCAUCA"}, "B7": {"name": "chr7:7676484:7676485:-_ENSG00000106399_ENST00000223129|hu_hu|FALSE|FALSE (ssRNA)", "RNA": "GGGAGUUCUACAGUCCGACGAUCAUAUUGGAGUAGCAAUUCUUUAUAAAAGGACUUCGGUGAGAACUGUCAAUAUAUCAGUUCCAUCAAAAACUCUAGGUUGGAAUAUCUUAAAAACAGCAAAUUAAAUAUGAGAAAGCACAGCAACAGAGGAUUGAGCAUCA"}, "B8": {"name": "chr7:7679991:7679992:-_ENSG00000106399_ENST00000396682|hu_hu|hu_hu_hu_mus_False|28_48 (ssRNA)", "RNA": "GGGAGUUCUACAGUCCGACGAUCUGGGAUGAAUCUUUUCCAGCUUCCCCACGAAGCACACGGGCCGGUCGAUAUACUGUGGUAACAUGCCGGCGUUGACGCGCGCUCUGGGCAAGUGCAUUAUGUCCUCCAUGAUUCUGCCGCCAACAGAGGAUUGAGCAUCA"}, "B9": {"name": "chr18:35731848:35731849:+_ENSMUSG00000037236_ENSMUST00000166793|perfect_dup|motif|central (ssRNA)", "RNA": "GGGAGUUCUACAGUCCGACGAUCCAGUGCACUAUGAGCUCCUUGUUGAUUCAAUGAAGAACUCAUUCCAAGAUUCAUUAAACGGGCAAGGCGUGCAGUACCCUGGUUCAUCCUUCCAAGAGAUGCUGGCAUACUUAAAGACUGCAACAGAGGAUUGAGCAUCA"}, "B10": {"name": "chrX:102930994:102930995:-_ENSG00000123562_ENST00000441076|hu_hu|motif|central (ssRNA)", "RNA": "GGGAGUUCUACAGUCCGACGAUCAUAAGCCCUGUUAUACAUUAACGAUUUUAAAGAACAUCAAUUUUACAAGAAAAAGACGGAGAACAAAAAGUGUUUACAGAUACAGGACAAAAAUGGUGAGCUGUCUGUAGACGCUCACAGCAACAGAGGAUUGAGCAUCA"}, "B11": {"name": "chr2:202488911:202488912:-_ENSG00000155755_ENST00000286196|hu_mus|hu_hu_hu_mus_False|68_108 (ssRNA)", "RNA": "GGGAGUUCUACAGUCCGACGAUCAUUUAACAUUUUUUCAUAAUCUCCAGUAGCAUUUCAGCAUUAUUAAUCAAAAACUCAAUUGUAAAUACAUGUAUCUUAUAAAAAUACACUUAAAAACACGAGUGGGGAGCGCAGGCGCCACAACAGAGGAUUGAGCAUCA"}, "B12": {"name": "chr2:179515052:179515053:+_ENSMUSG00000000305_ENSMUST00000000314|mus_hu|mus_mus_mus_hu_False|1_88 (ssRNA)", "RNA": "GGGAGUUCUACAGUCCGACGAUCGCUGUCCCAUGCAGUCACCGUGAAGGCCACCUGCUCGGAGGGGACCUGCAGCUCCCGGGUGGCGAAGACUGUCCCAUCUGCCCCAACUUUGAAGUCCAUGCUGUUGGUCUCAUACUGCAUCAACAGAGGAUUGAGCAUCA"}, "B13": {"name": "chr11:119660697:119660698:+_ENSMUSG00000025583_ENSMUST00000147781|mus_mus|FALSE|FALSE (ssRNA)", "RNA": "GGGAGUUCUACAGUCCGACGAUCGCUUACUGGGGUGCAGUUAUAUGACCUCAUGAUUCUUUCUGCCAAUAAAAAAUUUCUAAACAAACUUGCCACGAGCAGGUCCUGUCGGAAAAGCUUUUGGAAGAGAUCCCGAGGGAGCACCAACAGAGGAUUGAGCAUCA"}, "B14": {"name": "chr12:70286429:70286430:+_ENSMUSG00000043998_ENSMUST00000060579|mus_mus|motif|central (ssRNA)", "RNA": "GGGAGUUCUACAGUCCGACGAUCACACUCCUGCUGCUUCAGUUUCCACAUCUUUUUGAAGACAUGGUAAAAGUCUGGGGCGGAGUAGUGGUCCUCUUCCAGGAAGAGUAUAAGGCCAGUGUAAUCUUGAAGAACUUUGACUCUCAACAGAGGAUUGAGCAUCA"}, "B15": {"name": "66484257_66484377_196_5pUTR_ENSMUSG00000025326_ENSMUST00000107537|mouse|control|control (ssRNA)", "RNA": "GGGAGUUCUACAGUCCGACGAUCGAGAAGCAGAAGGAGGCGCCACCGUCAGCGACAGGUCGACGGAAGAGAAGCGUAACGAGGCGGUGAACAGCUGCGUGGCCCGGUGCGCGAGCGAGAGAGCGAGCGCAGGAGGGGCGACGACAACAGAGGAUUGAGCAUCA"}, "B16": {"name": "chr9:58044877:58044878:-_ENSMUSG00000051243_ENSMUST00000114144|mus_mus|FALSE|FALSE (ssRNA)", "RNA": "GGGAGUUCUACAGUCCGACGAUCCCCAGAAGGUGGGAAGGGGGUAUUAGCACCAGACCCAGAAAUGUCGCUGCUUUUUAAAACAACGAAAAUAAGAAAAUCAGUGCGCUGAGUUGAAAGGCCUACCAGGACCCCAGUUUGGCUCAACAGAGGAUUGAGCAUCA"}, "B17": {"name": "5094200_5094320_2150_3pUTR_ENSMUSG00000020393_ENSMUST00000020662|mouse|control|control (ssRNA)", "RNA": "GGGAGUUCUACAGUCCGACGAUCCUACAGCCCCAGCUCUAGGCUACAGCCCCAGCUCUAGGCUACAGCCCCAGCUCUAGGCUACAGGCUUGGGCUGAGGACAGGAAGACAGGCUGAAUUCUGAUUCCACAGGAUUGGCAACUACAACAGAGGAUUGAGCAUCA"}, "B18": {"name": "chr2:55462594:55462595:+_ENSG00000143947_ENST00000402285|hu_mus|motif|central (ssRNA)", "RNA": "GGGAGUUCUACAGUCCGACGAUCUCCCAUGAAAACUCCAGCACCACAUUCAUCAGAAGGACACUCUCGACGAAGUCGGCGGAUUUUGCCAUUUUCAUCCACCUUAUAGUAUUUCAGCACAGCCAACUUAACCUUCUUCCUCUUCAACAGAGGAUUGAGCAUCA"}, "B19": {"name": "54996473_54998144_359_CDS_ENSMUSG00000029777_ENSMUST00000003572|mouse|control|control (ssRNA)", "RNA": "GGGAGUUCUACAGUCCGACGAUCCUGAUCGUAGAAAAACCUCCUCUUCAACGUAUCUUCCAUUUUUGCUCUAUCUACGAUGUCAUCUUUGGGCUGCAAUGCCAGCUCCUUUGCUUCCAGAACCCUCUUCCGGGCCUUGAGCUCCAACAGAGGAUUGAGCAUCA"}, "B20": {"name": "chr1:2330915:2330916:+_ENSG00000157916_ENST00000443438|hu_hu|FALSE|FALSE (ssRNA)", "RNA": "GGGAGUUCUACAGUCCGACGAUCAGGACCGUCAUCUGAGUCUUCCAUUAAGGAAGGAUCCACUUUGGGAGAAAGAAAAGCUAUGAAAAGAUUUAGAUGGUAGAUCCCCAAGGCAUAGGUCACAAUGUACCAACCCUGCAGCAGCAACAGAGGAUUGAGCAUCA"}, "B21": {"name": "chr1:66462064:66462065:+_ENSMUSG00000015222_ENSMUST00000114013|mus_hu|FALSE|FALSE (ssRNA)", "RNA": "GGGAGUUCUACAGUCCGACGAUCGACAUCAGCUCUCUCAUCUGUGGCUAAAUCAGCCUCUGAAACAGCAGGUGGGCAAGGUAUUUCCACUGACAAUUUGACGGCAAUCUCAUCUUGAAUUAGAGAUGAUUCUGGAGAUGUUUCCAACAGAGGAUUGAGCAUCA"}, "B22": {"name": "chr3:139078181:139078182:-_ENSG00000184432_ENST00000507777|hu_hu|FALSE|FALSE (ssRNA)", "RNA": "GGGAGUUCUACAGUCCGACGAUCCUGACUGGGUAAGUAAGUUCGGGCCAAGAAGGCAGCUUCUGGCAGCCGUCCAGUUCUAAUUAAGAGCUCUAGGCAGGCAUCAACCUUGCCCUGUAAAAAGUAGCUCAUGAAUGCCACAUUCAACAGAGGAUUGAGCAUCA"}}, "note": "The list shows a part of the results.", "data": [{"target": "T1, UNK ZnF1-3 (human, UniProt Q9C0B0 31-174)", "T1 sequence": "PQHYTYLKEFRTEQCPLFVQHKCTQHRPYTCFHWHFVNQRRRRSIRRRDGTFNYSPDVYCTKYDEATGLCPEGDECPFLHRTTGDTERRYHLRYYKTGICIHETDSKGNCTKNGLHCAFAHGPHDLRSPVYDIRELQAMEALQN", "assay": "nsRBNS (natural sequence RNA bind-n-seq); RBNS binding buffer (assumed for nsRBNS): 25 mM Tris pH 7.5, 150 mM KCl, 3 mM MgCl2, 0.01% Triton X-100, 500 ug/ml BSA, 20 U/ml SUPERase-In, 4 C; UNK is unkempt and MSI1 is Musashi-1; names of the RNAs are library labels; protein concentration not given here; high values mean tight binding", "units": {"binding signal": "enrichment R"}, "values": [{"binder": "B1", "binding signal": 1.89}, {"binder": "B2", "binding signal": 1.26}, {"binder": "B3", "binding signal": 0.842}, {"binder": "B4", "binding signal": 0.81}, {"binder": "B5", "binding signal": 1.47}, {"binder": "B6", "binding signal": 0.923}, {"binder": "B7", "binding signal": 2.74}, {"binder": "B8", "binding signal": 0.506}, {"binder": "B9", "binding signal": 0.828}, {"binder": "B10", "binding signal": 0.946}, {"binder": "B11", "binding signal": 0.924}, {"binder": "B12", "binding signal": 0.765}, {"binder": "B13", "binding signal": 1.33}, {"binder": "B14", "binding signal": 0.771}, {"binder": "B15", "binding signal": 1.82}, {"binder": "B16", "binding signal": 1.21}, {"binder": "B17", "binding signal": 0.734}, {"binder": "B18", "binding signal": 1.18}, {"binder": "B19", "binding signal": 0.527}, {"binder": "B20", "binding signal": 1.25}, {"binder": "B21", "binding signal": 0.88}, {"binder": "B22", "binding signal": 1.02}]}]}
